According to the supplement of paper PMC10338343:
± gives the standard deviation. The list shows a part of the results, in another mix than the full data.

These sequences were tested on MIWI (PIWIL1) piRISC loaded with L1MC piRNA (30 nt) (assay: pre-steady-state target cleavage rate (min^-1); MIWI and MILI are mouse PIWI proteins and EfPiwi is from a freshwater sponge; tags in brackets are library labels; higher = faster piRNA-guided slicing of the target). Details: guide: L1MC piRNA 5'p-UAACUAAAUACUAUGCAAGCUGUAGGUCCU; auxiliary factor: 500 nM mouse GTSF1.
Method in brief: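 Active affinity-purified piRISC (1 nM) loaded with one synthetic guide was mixed with a transcribed, DNA-blocked target RNA library (0.1 nM), with or without 500 nM GTSF1 partner protein, in HEPES–potassium acetate buffer at 33 °C for 0–8 or 0–960 min. Uncleaved targets were sequenced, normalised to depth and to weakly complementary targets, and pooled across three trials, with k3 capped at 0.0001 min^-1. The pre-steady-state cleavage rate was determined with a burst-and-steady-state fit.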

Row | Sequence | pre-steady-state target cleavage rate
1 | UCCUGCUACAGCUUGCAUAGUAUUAUCUAA | 0.194 ± 0.036
2 | UCCUGGAUGAGCUUCCAUAGUAUUUAGUUA | 0.0314 ± 0.014
3 | UCCUCCUACAGCUUGGAUAGUAUUUUCAAA | 0.0219 ± 0.0094
4 | UCCUGCUACAGCUUGCAUUCUAUUUUCAAA | 0.0098 ± 0.0053
5 | UCGACCUACACGAUGCAUAGUAUUUACAAA | 0.147 ± 0.021
6 | UGGACCUACAGCAAGCAUAGUAUUUUCAAA | 0.226 ± 0.051
7 | UCCUGGAUGUCCUUGCAUAGCUAUUUAGUUA | 0.0054 ± 0.0036
8 | UGGACCUACAGCUUGCAUAGUAUAAAGAAA | 0.211 ± 0.047
9 | UCCUGGAUGUGCAUGCAUAGUUUUUAGUUA | 0.00476 ± 0.0042
10 | UCCUGGAUGUCGUUGCAUAGUAUUUAGGUUA | 0.00749 ± 0.0034
11 | UCGACCUACAGCUUGCAUAGUAUUAUCUAA | 0.463 ± 0.058
12 | AGGACCUACUCGUUGCAUAGUAUUUUCAAA | 0.248 ± 0.044
13 | UCGACCUACAGCUUGCUAUGUAUUUAGAAA | 0.0126 ± 0.0051
14 | UCCUGGAACAGCUACGAUAGUAUUUAGUAA | 0.00743 ± 0.0044
15 | UGGACCUACAGCUUGCAUAGUAUAAUGAAA | 0.192 ± 0.036
16 | UCCUGGAACAGCUUGCAUAGUAUAUACAAA | 0.266 ± 0.059
17 | UCCUGGAUGUCGUUCAUAGUAUUUAGUUA | 0.00465 ± 0.0037
18 | UCCACCUACAGCUUGCAUAGUAAUUUCAAA | 0.269 ± 0.058

Row | Sequence | pre-steady-state target cleavage rate
19 | UCCUGGAUGAGUUGCAUAGUAUUUAGUUA | 0.0281 ± 0.0058
20 | UCCUCCUACAGCAAGCAUAGUAUUUUCAAA | 0.187 ± 0.041
21 | UCCUCCUACAGCUAGCAUAGUAUUUAGAAA | 0.312 ± 0.041
22 | UGGACCUACAGCUUGCAUAGUAAAUACAAA | 0.0451 ± 0.014
23 | UCCUGCUACAGCUUGCAUAGAUUUUUCAAA | 0.00611 ± 0.004
24 | UCCUGGUACAGCUACGAUAGUAUUUAGUAA | 0.0155 ± 0.0064
25 | UCCUGCUACAGCUUGCAUUCUAUUUAGAAA | 0.0941 ± 0.032
26 | UCCUGCUACAGCUUGCAUACGUAUUUAGUUA | 0.00451 ± 0.0041
27 | UCCUGGUACAGCUUGGUUAGUAUUUUCAAA | 0.00719 ± 0.0059
28 | UCCUGGAUGUCGUUGCAUGAGUAUUUAGUUA | < 0.0001
29 | UCCUGGAUCAGCUUGCAUAGCUAUUUAGUUA | 0.00447 ± 0.0039
30 | UCCUCCUACAGCUUGCAUAGUAUAUAGAAA | 0.283 ± 0.057
31 | UCCUCCUACAGCUUGCAUAGUAUUUUCUAA | 0.316 ± 0.036
32 | UCCUGCUACAGCUUGCAUACAAUUUAGUAA | 0.0165 ± 0.008
33 | UCCUGGAUGUCGUUAGCAUAGUAUUUAGUUA | 0.0102 ± 0.0036
34 | UCCACCUUGUGCUUGCAUAGUAUUUAGAAA | 0.121 ± 0.017
35 | UCCUGGUACAGCUUGCAUUGUAUUUUCAAA | 0.0222 ± 0.01

Same assay, conditions: guide: L1MC piRNA 5'p-UAACUAAAUACUAUGCAAGCUGUAGGUCCU; auxiliary factor: none (no GTSF1)

Row | Sequence | pre-steady-state target cleavage rate
36 | AGGAUCCUACAGCUUGCAUAGUAUUUAGUUA | 0.118 ± 0.023
37 | AGGUCGUACAGCUUGCAUAGUAUUUAGUUA | 0.0817 ± 0.012
38 | UCCUGGAUGUCGAACGUAUCUAAUUUGUUA | < 0.0001
39 | UCCUGGAUGUCGAACUAUAGUAUUUAGUUA | < 0.0001
40 | UCCUGGAUGUCGAACGUAAGUAUAAAGUUA | < 0.0001
